{"source": "patent US11793801B2", "about": "“Treatment of pain and neurological conditions” (BioCorRx, Inc., priority 2020, dated 2023)", "molecular_target": "ORL1 (NOP) receptor (Homo sapiens, UniProt P41146)", "sequence (P41146 whole entry)": "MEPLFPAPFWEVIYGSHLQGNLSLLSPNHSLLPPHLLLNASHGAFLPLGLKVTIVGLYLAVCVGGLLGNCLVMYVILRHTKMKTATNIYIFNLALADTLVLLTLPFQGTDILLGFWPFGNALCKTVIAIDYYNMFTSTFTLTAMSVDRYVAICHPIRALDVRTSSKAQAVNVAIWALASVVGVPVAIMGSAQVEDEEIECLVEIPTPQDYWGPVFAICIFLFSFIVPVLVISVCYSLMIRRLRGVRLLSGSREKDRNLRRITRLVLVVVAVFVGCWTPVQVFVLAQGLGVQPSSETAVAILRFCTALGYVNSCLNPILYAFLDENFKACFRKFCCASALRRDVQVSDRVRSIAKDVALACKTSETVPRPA", "conditions": "in vitro", "note": "Like-named read-outs stand apart in the source and are kept apart here."}
{"smiles": "CCC(=O)NC1CC(C)N(CCc2ccccc2)CC1C", "note": "(centres unmarked) [Compound 1, N-[2,5-dimethyl-1-(2-phenylethyl)piperidin-4-yl]propanamide]", "values": [{"measurement": "Receptor ORL1 (NOP): mode of action", "result": "Antagonist"}, {"measurement": "Receptor ORL1 (NOP): mode of action", "setting": "listed as compound 1", "result": "antagonist"}]}
